The record followed here is the supplement of paper PMC12645437, “Orthogonal IMiD-Degron Pairs Induce Selective Protein Degradation in Cells” (ACS Chemical Biology, 2025).

The list shows a part of the results.
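Further: jurkat cells carrying a lentiviral library of mutant zinc finger degrons fused to EGFP plus mCherry, mCherry+ cells FACS sorted, degron abundance counted by next-generation sequencing.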

This assay deals with no compound (DMSO). Nature of the assay: log2 fold change of degron read counts, EGFP-low vs EGFP+ sorted cells; higher = lower degron-EGFP level without compound (poor expression or instability). As to conditions: compound: DMSO control; 18 h.
Turning to FQCPICGRLFTQKGNLLRHIKL, the “log2 fold change of degron read counts” value amounted to 0.802.
To FECEICGRAFTQKGNLLRHIKL belongs -2.67; to FVCNQCGRFFTQKGNLLRHIKL, 0.565.
In the case of FKCSVCGHKFTQKGNLLRHIKL, the “log2 fold change of degron read counts” value is -0.831.
The same measure for FACSVCGHDFTQKGNLLRHIKL: -0.939.
The same measure for FGCPICGHCFTQKGNLLRHIKL: -0.132.
To FVCDVCGATFTQKGNLLRHIKL belongs -2.95; to LHCPICGFECTQKGNLLRHIKL, 0.0807; to FHCNQCGHIFTQKGNLLRHIKL, 0.417.
For FVCDVCGAKFTQKGNLLRHIKL, the “log2 fold change of degron read counts” value was -2.64.
With FICEQCGACFTQKGNLLRHIKL, the “log2 fold change of degron read counts” value is -1.25.
To FACNQCGHKFTQKGNLLRHIKL belongs 0.859.
With FGCNQCGALFTQKGNLLRHIKL, the “log2 fold change of degron read counts” value was determined as 0.512.
The same measure for FKCPICGHGFTQKGNLLRHIKL: -0.385; for FVCPICGRQFTQKGNLLRHIKL: -0.279; for LVCEICGFKCTQKGNLLRHIKL: -1.25.
On to FSCEQCGATFTQKGNLLRHIKL, for which the “log2 fold change of degron read counts” value is -2.19.
Consider FSCPICGRPFTQKGNLLRHIKL, for which the “log2 fold change of degron read counts” value amounted to 0.317.
The same measure for FTCEVCGASFTQKGNLLRHIKL: -1.92; for FVCPQCGADFTQKGNLLRHIKL: -2.32; for FHCPQCGAEFTQKGNLLRHIKL: -1.47.
The same measure for FGCNVCGADFTQKGNLLRHIKL: 0.0861; for FYCDVCGATFTQKGNLLRHIKL: -1.02; for LFCPICGFPCTQKGNLLRHIKL: 1.92.
The same measure for LACEICGFQCTQKGNLLRHIKL: -0.796; for FCCEICGHFFTQKGNLLRHIKL: 0.0786; for FLCEQCGAIFTQKGNLLRHIKL: -1.29.
For FACDVCGAAFTQKGNLLRHIKL, the “log2 fold change of degron read counts” value is -1.84.
To LHCPICGFFCTQKGNLLRHIKL belongs 1.82.
To FNCNVCGALFTQKGNLLRHIKL belongs -0.104; to FYCPVCGANFTQKGNLLRHIKL, -0.222.
To FDCNVCGAPFTQKGNLLRHIKL belongs -0.129; to FWCDQCGAVFTQKGNLLRHIKL, 0.354.
Consider FICEICGHDFTQKGNLLRHIKL, for which the “log2 fold change of degron read counts” value is -2.06.
The same measure for FICEICGAIFTQKGNLLRHIKL: -0.36.
In the case of FTCNVCGANFTQKGNLLRHIKL, the “log2 fold change of degron read counts” value was -1.55.
The same measure for LWCPICGFRCTQKGNLLRHIKL: 2.4; for FCCPICGHCFTQKGNLLRHIKL: 0.138.
On to LICPICGFCCTQKGNLLRHIKL, for which the “log2 fold change of degron read counts” value amounted to 1.27.
On to FRCEQCGACFTQKGNLLRHIKL, for which the “log2 fold change of degron read counts” value is -1.46.
To FMCNVCGAIFTQKGNLLRHIKL belongs 0.237; to FDCNQCGRFFTQKGNLLRHIKL, 1.5; to LLCPICGFICTQKGNLLRHIKL, 1.58.
The same measure for FSCDICGAVFTQKGNLLRHIKL: 0.74; for FSCNVCGATFTQKGNLLRHIKL: -1.03; for FGCPICGRNFTQKGNLLRHIKL: 0.26.
The same measure for FMCPQCGAHFTQKGNLLRHIKL: -0.206.
On to FMCNICGAKFTQKGNLLRHIKL, for which the “log2 fold change of degron read counts” value was -0.988.
The same measure for FECPVCGATFTQKGNLLRHIKL: -0.491; for FECPVCGAYFTQKGNLLRHIKL: -1.12.
